We go through 96 compounds from PubChem BioAssay AID1159614 (National Center for Advancing Translational Sciences (NCATS), 2016).

About 65 (0.1%) of roughly 45,000 compounds were called active. Calls come from the whole dose curve; as a rule, active = well fitted activation curve with a large enough effect; inconclusive = small, poorly fitted or top-dose-only effect; inactive = no such curve, though single readings can be large or run the other way. The list shows a part of the results.

Chain of UniProt P54803 (P54803 whole entry, looked up): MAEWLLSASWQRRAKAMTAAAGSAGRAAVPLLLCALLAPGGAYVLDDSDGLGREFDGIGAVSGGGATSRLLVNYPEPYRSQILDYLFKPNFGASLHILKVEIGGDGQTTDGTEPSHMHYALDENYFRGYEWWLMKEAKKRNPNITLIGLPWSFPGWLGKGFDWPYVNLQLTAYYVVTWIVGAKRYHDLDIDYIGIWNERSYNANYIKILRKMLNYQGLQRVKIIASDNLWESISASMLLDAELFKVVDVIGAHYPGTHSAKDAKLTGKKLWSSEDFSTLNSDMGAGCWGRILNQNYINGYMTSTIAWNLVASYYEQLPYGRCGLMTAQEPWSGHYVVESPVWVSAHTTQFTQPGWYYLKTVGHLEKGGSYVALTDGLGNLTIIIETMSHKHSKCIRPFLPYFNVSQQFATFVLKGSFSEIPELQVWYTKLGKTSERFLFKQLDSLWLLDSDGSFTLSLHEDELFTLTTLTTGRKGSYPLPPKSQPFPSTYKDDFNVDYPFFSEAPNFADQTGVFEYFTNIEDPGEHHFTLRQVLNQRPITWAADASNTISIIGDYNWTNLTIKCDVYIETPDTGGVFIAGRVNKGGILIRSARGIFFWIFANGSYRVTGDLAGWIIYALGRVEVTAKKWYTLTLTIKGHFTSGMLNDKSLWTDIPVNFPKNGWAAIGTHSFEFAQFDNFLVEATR

This assay has as its target Galactocerebrosidase (Homo sapiens) (UniProt P54803). The assay can be described thus: A Novel Cell-Based Assay to Identify Small Molecules for B -Galactocerebrosidase. Note: 0% is about no effect; nearly all actives have a fitted effect of over 65% in size. The following applies: 145M-Twi-hGALC-G270D cells (Twitcher mouse brain line with human GALC G270D), HMU-beta-Gal fluorescence, 48 h; series mostly up to 57.5 µM; activation: at the top concentration. The procedure, abridged:
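Live 145M-Twi cells (Twitcher mouse brain-derived, GALC-null) stably expressing human GALC-G270D, with a wild-type GALC line, were compound-treated. Residual GALC activity was then read as fluorescence from 0.1 mM final HMU-β-gal at pH 5.2; higher signal means activation.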
`CCOc1ccc(-c2cc(C(=O)N3CCN(c4cccc(C)c4)C(C)C3)c3ccccc3n2)cc1` (stereo unspecified): the “activation” value is inactive: 16.8%. On to `CN(C(=O)CSc1nc2ccc(NC(=O)CCc3ccccc3)cc2s1)c1ccccc1`, for which the “activation” value was inactive: -26.2%. `Cc1ccccc1OCC(=O)Nc1ccc2nc(SCCOc3ccccc3)sc2c1`: the “activation” value was inactive: -11%. The result for `O=C(CSc1nc2ccccc2nc1Cc1ccc(Cl)cc1)N1CCN(c2ccccc2F)CC1` reads inactive: -15.6%; that for `CCc1cccc(NC(c2nnc(-c3ccccc3)o2)c2ccc(F)cc2Cl)c1` (stereo unspecified), inactive: -4%; that for `Cc1ccc(NC(=O)NCC2CCN(Cc3cccc(Cl)c3)CC2)cc1Cl`, inactive: -29.2%. The result for `CCCC(=O)Nc1cc(-c2nc3cccnc3s2)ccc1C` reads inactive: -9.72%; that for `CCOC(=O)c1ccc(NC(=O)C2CC(=O)N(c3ccc(C(C)C)cc3)C2)cc1` (stereo unspecified), inactive: 1.89%; that for `COc1ccc(C(=O)Nc2ccc3oc(-c4ccc(OC)cc4)nc3c2)cc1`, inactive: -19.8%.

As to `CC(NC(=O)c1cccc(NC(=O)c2nsc3ccccc23)c1)c1ccccc1` (stereo unspecified), the “activation” value was inactive: -6.75%. `COc1ccc2c(c1)Cc1sc(NC(=O)c3cccc(F)c3)nc1-2`: the “activation” value was inactive: 0.0641%.

Turning to `CC(=O)Nc1ccc(S(=O)(=O)NC2(C(F)(F)F)C(=O)Nc3c2c(=O)[nH]c(=O)n3-c2ccc(C)c(C)c2)cc1` (stereo unspecified), the “activation” value was inactive: -11.3%.

Turning to `Cc1cccc(NC(=O)CCNS(=O)(=O)c2cccc3nonc23)c1`, the “activation” value was inactive: -7.56%. To `Cc1ccc(C(=O)CSc2nnc(-c3ccccc3)n2-c2ccccc2)cc1` belongs inactive: -6.53%; to `CCOc1ccc(NS(=O)(=O)c2ccc3[nH]cc(C(=O)NC4CCCC4)c(=O)c3c2)cc1`, inactive: -14.3%. To `CCOc1ccc(C(=O)c2cn(Cc3ccc(OC)cc3)c3cc(OC)c(OC)cc3c2=O)cc1` belongs inactive: -20.4%; to `CCN1c2ccccc2-c2nc(SCC(=O)Nc3c(C)cc(C)cc3C)ncc2S1(=O)=O`, inactive: -0.933%; to `COc1cccc(-n2c(-c3ccco3)nc3c(cnn3-c3ccc(C)cc3)c2=O)c1`, inactive: -4.72%. With `O=C(Nc1cc(Cl)ccc1Cl)C1(c2cccs2)CCOCC1`, the “activation” value is inactive: -8.05%. For the compound `Cc1noc(Cn2c(=O)c3ccccc3n(CC(=O)Nc3ccc(Cl)cc3)c2=O)n1`, the “activation” value is inactive: -17.6%.

`CCOc1ccc(NC(=O)CSc2ncc3c(n2)-c2cc(Cl)ccc2N(C)S3(=O)=O)cc1`: the “activation” value is inactive: 0.186%.

`Cc1ccc2cccc(NC(=O)C(C)Oc3ccc(C)c(C)c3)c2n1` (stereo unspecified): the “activation” value is inactive: -10.6%. Consider `Cc1ccc(Nc2c(F)cccc2Cl)c(CC(=O)O)c1`, for which the “activation” value is inactive: -7.97%. To `CC1=C(C(=O)NCc2ccc(C)cc2)C2(CCCCC2)OC1=O` belongs inactive: -17.3%; to `COc1ccc(N2CCN(C(=O)c3ccc(Nc4nc5ccccc5n5nnnc45)cc3)CC2)cc1`, inactive: -3.79%. `COc1ccc(NC(=O)CCNS(=O)(=O)c2cccc3nonc23)c(OC)c1`: the “activation” value is inactive: -7.17%. The result for `CC(=O)N1CCCc2cc(S(=O)(=O)N3CCCC(C(=O)Nc4cccc(F)c4)C3)ccc21` (stereo unspecified) reads inactive: -19.3%; that for `O=c1c2cc3c(cc2n(Cc2cccc(Cl)c2)c(=O)n1Cc1nc(-c2ccccc2)no1)OCO3`, inactive: -2.45%; that for `COc1ccc(Nc2ncc(C(=O)Nc3cc(Cl)c(OC)cc3OC)c3ccccc23)cc1`, inactive: 11.7%.

As to `CN(C)c1ccc(C(CNS(=O)(=O)c2ccc(F)cc2)N2CCCC2)cc1` (stereo unspecified), the “activation” value was inactive: -13.9%. As to `O=C(CCS(=O)(=O)c1nc(-c2ccc3c(c2)OCO3)cc(C(F)(F)F)n1)Nc1ccc(F)c(Cl)c1`, the “activation” value is inactive: -24.4%. The result for `O=C(Nc1ncc(Cc2ccc(Cl)cc2)s1)c1ccc2c(c1)CC(c1ccccc1)OC2=O` (stereo unspecified) reads inactive: -6.24%; that for `COc1cccc(C2CC(=O)Nc3c2c(=O)nc2c(C)cccn32)c1` (stereo unspecified), inactive: -10.9%. For `COc1cccc(CNC(=O)CSc2nc3ccccc3nc2Cc2ccc(C)cc2)c1OC`, the “activation” value was inactive: 1.2%.

Regarding `Cc1ccc(NC(=O)CCNS(=O)(=O)c2ccc3c(c2)CCN3C(=O)C2CC2)c(Cl)c1`, the “activation” value was inactive: -36.1%. For the compound `CCCn1c2ccccc2c2cnn(CC(=O)NCCc3ccc(OCC)c(OCC)c3)c(=O)c21`, the “activation” value is inactive: -11.5%. The result for `CCCCNC(=O)CCn1c(=O)c2cccn2c2ccc(F)cc21` reads inactive: -4.56%; that for `CCOc1ccccc1NC(=O)CSc1ncc(S(=O)(=O)c2ccc(C(C)(C)C)cc2)c(=O)[nH]1`, inactive: -15.2%. The result for `CCCCN(Cc1ccco1)C(=O)c1cc2c(s1)-c1c(C)cccc1OC2` reads inactive: -5.44%; that for `Cc1cccc(NC(=O)c2oc3ccc(S(=O)(=O)N(C)C4CCCCC4)cc3c2C)c1C`, inactive: -2.46%; that for `CCOC(=O)c1ccccc1NC(=O)c1nn(-c2ccc(C)cc2)c(=O)n(C)c1=O`, inactive: -8.44%.

For `CCc1ccc(S(=O)(=O)N2CCN(c3ccc(Cl)c(Cl)c3)CC2)cc1`, the “activation” value was inactive: 2.43%.

As for `CCc1ccccc1NC(=O)Cn1nnc(C(=O)Nc2ccc(OC)c(OC)c2)c1N`, the “activation” value was inactive: -6.98%. The result for `Cc1ccccc1NC(=O)c1ccc(F)c(S(=O)(=O)N2CCc3ccccc3C2)c1` reads inactive: -9.77%. The result for `COC(=O)Cn1ccc2cc(S(=O)(=O)N3CCCCC3)ccc21` reads inactive: -14.6%; that for `Cc1cc(C)c(S(=O)(=O)N2CCC(N3CCN(Cc4ccc(F)cc4)C(=O)C3=O)CC2)c(C)c1`, inactive: -23.2%; that for `CC(C)c1ccc(NC(=O)c2cnn3c(C(F)F)cc(-c4ccccc4)nc23)cc1`, inactive: -10.6%.

Consider `Cc1ccc(C(C)C)c(OCCCn2c(=O)oc3ccc(C)cc32)c1`, for which the “activation” value was inactive: -5.96%.

With `COc1c(Cl)cc(Cl)cc1/C=C(\C#N)c1nc(-c2ccc(Cl)cc2)cs1`, the “activation” value is inactive: 20.8%. Take `CCOCCCNC(=O)Cn1cc2c(n1)-c1c(oc(C(=O)N3CCCC3)c1C)CC2`: the “activation” value was inactive: -3.23%. To `CCc1ccccc1NC(=O)c1cnn(-c2ccc(F)cc2)c1C1CCNCC1` belongs inactive: -12.6%; to `COc1ccc(-c2cc(-c3ccc4c(c3)NC(=O)CO4)nc3c2COc2ccc(C)cc2-3)cc1`, inactive: -15%. To `COc1ccc(-n2ncc(C(=O)NCCCN3CCCCC3)c2C2CCN(C(=O)OC(C)(C)C)CC2)cc1` belongs inactive: -6.28%; to `Cc1c(NC(=O)C(F)(F)F)ccc2nc3c(=O)n(C)c(=O)n(C)c3nc12`, inactive: -0.948%. To `COc1cccc(NC(=O)Cn2c(=O)n(CCCCC(=O)NCc3ccc4c(c3)OCO4)c(=O)c3ccccc32)c1` belongs inactive: -9.86%; to `Cc1ccc(C)c(N2CCN(C(=O)C3CCC(CNS(=O)(=O)c4ccc(Br)s4)CC3)CC2)c1` (stereo unspecified), inactive: -14.3%; to `O=C(O)COc1ccccc1C1Nc2ccccc2-c2nnc(SCc3ccc(Cl)cc3)nc2O1` (stereo unspecified), inactive: -3.6%. For the compound `CCOc1ccc(-c2cc(CCCC(=O)NCCc3ccc(OC)c(OC)c3)no2)cc1`, the “activation” value is inactive: -29.8%. The result for `CC(C)(C)C(=O)Nc1ccc2nc(SCCOc3ccccc3Cl)sc2c1` reads inactive: -40%; that for `Oc1cccc(Nc2cc(-c3ccccc3)ncn2)c1`, inactive: -9.56%. To `CCCS(=O)(=O)N1CC(=O)N(c2cc(C)cc(C)c2)C(C)(C(=O)NC2CCCCCC2)C1` (stereo unspecified) belongs inactive: -14.8%. The result for `N#Cc1ccc(NC(=O)c2ccc3c(c2)nnn3C2CCCC2)cc1` reads inactive: 0.494%; that for `COc1ccc(Nc2oc(-c3ccc(COc4ccccc4)o3)nc2C#N)cc1`, inactive: -11.4%; that for `CCOC(=O)N1CCC(NC(=O)c2cnn(-c3ccc(C)cc3)c2C2CCN(C(=O)OC(C)(C)C)CC2)CC1`, inactive: -7.77%. Regarding `COc1ccc(-n2c(SCc3nc(-c4ccc(Cl)cc4)no3)nnc2-c2ccncc2)cc1`, the “activation” value was inactive: -20.9%.

`CCC(Sc1ncnc2sc3c(c12)CCCC3)C(=O)OCC(C)C` (stereo unspecified): the “activation” value is inactive: -11.7%.

Regarding `CCOc1ccccc1C(=O)Nc1cc(-c2nc3cccnc3s2)ccc1C`, the “activation” value was inactive: -25.5%. To `Cc1ccc(CSc2nc3cc(C(=O)NC4CCCC4)ccc3c(=O)n2Cc2ccccc2)cc1` belongs inactive: -18.6%; to `CCc1ccc(NS(=O)(=O)c2ccc(NC(=O)N3CCCC3)cc2)cc1`, inactive: -21%. Take `Cc1ccc(C)c(CSc2cn(CCNC(=O)c3cccs3)c3ccccc23)c1`: the “activation” value was inactive: -6.66%. The result for `CCc1ccc(NC(=O)Cn2nnc(C(=O)Nc3ccc(F)cc3)c2N)cc1` reads inactive: -4.58%; that for `O=C(Nc1cccc(O)c1)c1cc(-c2ccccc2F)no1`, inactive: -12.5%.

Regarding `CC(CNC(=O)c1csc2c1CCCCC2)c1ccccc1` (stereo unspecified), the “activation” value was inactive: -20.9%. The result for `Cc1cccc(NC(=O)CN2C(=O)CC(c3ccccc3)Sc3ccccc32)c1` (stereo unspecified) reads inactive: -19.4%; that for `Cc1ccccc1NC(=O)Cn1nnc(C(=O)NCc2cccs2)c1N`, inactive: -9.97%. In the case of `Cc1ccc(NC(=O)CCc2c(C)nc3ncnn3c2C)cc1Cl`, the “activation” value is inactive: -16.3%.

As to `CCOC(=O)C1CCCN(C(=O)Cn2ncc3c4ccccc4n(C)c3c2=O)C1` (stereo unspecified), the “activation” value was inactive: 1.04%.

As to `COc1cc(NC(=O)c2cc(S(=O)(=O)N3CCC(C)CC3)cn2C)cc(OC)c1OC`, the “activation” value is inactive: -12.9%. The result for `COc1ccc(CCN2C(=O)N(c3ccc(C)cc3)C(=O)C2CC(=O)Nc2ccc(OC)cc2)cc1` (stereo unspecified) reads inactive: -17.5%; that for `O=C(NCc1cccc(Cl)c1)c1ccc2c(Cl)c3c(nc2c1)CCCC3`, inactive: -9.03%. Consider `Cc1cccc2c(=O)cc(CSc3ccccc3NC(=O)c3cccc(Br)c3)[nH]c12`, for which the “activation” value was inactive: -14.1%.

For the compound `CCc1ccc(S(=O)(=O)Nc2cccc(-c3ccc(OC)nn3)c2)s1`, the “activation” value was inactive: -5.1%. To `COc1ccc(NC(=O)CSc2nc3nc(C)cc(C)n3n2)cc1OC` belongs inactive: -18.6%. Turning to `O=C(Nc1cccc(F)c1)C1CCN(S(=O)(=O)c2ccc3[nH]c4c(c3c2)CCCCC4)CC1`, the “activation” value is inactive: -11.8%. On to `COc1cc(O)ccc1-c1nc2cc(C)ccn2c1Nc1ccccc1C`, for which the “activation” value is inactive: -14.2%. The result for `O=C(CSc1ncc(CO)n1Cc1ccc(F)cc1)NCc1ccco1` reads inactive: 0.431%; that for `COc1cc(C(=O)NCC(c2ccc3c(c2)OCO3)N2CCN(C)CC2)cc(OC)c1OC` (stereo unspecified), inactive: -19.4%. The result for `COc1cccc2c1cc1c(=O)n(CC(=O)NCc3ccc(N(C)C)cc3)nc(C)n12` reads inactive: -6.57%. The result for `CC(C)c1ccc2oc(-c3cc(NC(=O)c4cccnc4)ccc3Cl)nc2c1` reads inactive: -1.79%. Consider `Cc1ccc(N2CC(C(=O)NCc3nnnn3-c3ccc(C)c(C)c3)CC2=O)cc1C` (stereo unspecified), for which the “activation” value was inactive: -14.7%.

Regarding `O=c1n(Cc2ccc(Cl)cc2)nc2n1-c1ccccc1OC2`, the “activation” value was inactive: -12.3%. Consider `CCC1CCCCN1CCCNC(=O)c1c(C)oc2ncn(CC(C)C)c(=O)c12` (stereo unspecified), for which the “activation” value is inactive: -4.14%. For the compound `COc1cccc(NC(=O)c2sc3nc(C)c(C(=O)Nc4ccc(C)cc4C)c(-c4ccc(C)o4)c3c2N)c1`, the “activation” value was inactive: -9.49%. The result for `COC(=O)C1=C(C)NC(C)=C(C(=O)OCC(C)=O)C1c1ccccc1[N+](=O)[O-]` (stereo unspecified) reads inactive: -2.08%; that for `CCOc1ccccc1NC(=O)NCc1noc2ccc(C)cc12`, inactive: -16%; that for `COC(=O)c1ccccc1NC(=O)CCC(=O)N1CC(C)Sc2ccccc21` (stereo unspecified), inactive: -2.96%.
